# Measured values from the supplement of paper PMC3334620.
# Whole data set: some 33,000 sequences, median “E-score (-0.5 to 0.5)” near -0.035, cut for the highest 2% near 0.35. Some of the results follow.
# Target: T1, Pdr3 (UniProt P33200)
# T1 sequence: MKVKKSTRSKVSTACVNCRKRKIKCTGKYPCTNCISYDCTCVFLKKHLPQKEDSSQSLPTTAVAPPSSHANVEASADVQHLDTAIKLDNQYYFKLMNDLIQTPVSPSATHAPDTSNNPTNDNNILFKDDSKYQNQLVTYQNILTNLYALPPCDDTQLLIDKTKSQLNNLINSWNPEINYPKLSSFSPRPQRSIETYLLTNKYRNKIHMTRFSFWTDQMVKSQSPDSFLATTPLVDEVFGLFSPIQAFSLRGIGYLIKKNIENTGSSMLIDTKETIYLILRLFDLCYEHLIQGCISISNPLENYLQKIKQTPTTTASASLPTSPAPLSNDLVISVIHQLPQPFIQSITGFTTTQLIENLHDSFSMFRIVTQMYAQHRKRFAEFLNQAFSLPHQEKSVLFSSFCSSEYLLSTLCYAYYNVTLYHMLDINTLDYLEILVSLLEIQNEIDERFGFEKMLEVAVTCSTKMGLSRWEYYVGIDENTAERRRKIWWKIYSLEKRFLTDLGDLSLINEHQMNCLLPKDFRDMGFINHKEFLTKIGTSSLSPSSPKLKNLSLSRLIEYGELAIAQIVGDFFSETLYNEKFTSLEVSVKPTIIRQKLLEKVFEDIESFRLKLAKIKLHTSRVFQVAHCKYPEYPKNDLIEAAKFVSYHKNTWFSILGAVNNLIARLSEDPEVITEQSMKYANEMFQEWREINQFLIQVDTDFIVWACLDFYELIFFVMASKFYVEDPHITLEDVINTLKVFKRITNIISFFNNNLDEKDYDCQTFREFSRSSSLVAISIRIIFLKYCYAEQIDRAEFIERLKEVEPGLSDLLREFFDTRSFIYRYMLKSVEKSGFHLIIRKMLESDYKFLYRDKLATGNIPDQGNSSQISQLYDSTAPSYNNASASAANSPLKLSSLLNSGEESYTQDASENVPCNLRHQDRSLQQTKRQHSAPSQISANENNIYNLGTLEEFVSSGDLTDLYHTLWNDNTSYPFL
# Assay: PBM E-score (8-mer binding enrichment) (E-score (-0.5 to 0.5)); higher = stronger / more preferred TF binding; most listed sequences are background and not binding sites
# Settings: protein concentration: 200 nM; construct: GST-full length
# Method: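 Universal 'all 10-mer' protein binding microarrays (Agilent AMADID 015681) probed with GST-tagged S. cerevisiae TFs (full-length or DBD) made by in vitro transcription/translation (PURExpress), about 100-200 nM. Bound TF was detected with fluorescent anti-GST. Each ungapped 8-mer (which stands for itself and its reverse complement) is scored by the PBM enrichment score (E-score), a modified Wilcoxon-Mann-Whitney statistic from -0.5 to +0.5, computed with the Universal PBM Analysis Suite. Scale: above 0.35 generally sequence-specific binding.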
row,Sequence,PBM E-score
1,AAGCGTGC,-0.0354
2,TCTTTGCA,-0.167
3,CATGTAGC,-0.0755
4,CCGCAGAA,0.22
5,ATGACCCG,0.0321
6,GCATACGA,-0.127
7,ATTTATGG,-0.171
8,CTGCCTAA,-0.22
9,GGAACAGA,0.161
10,CTCAGGTC,-0.00893
11,GCCACCAC,-0.257
12,CTCAACCC,0.0237
13,CACTTGCC,-0.0319
14,CATGACCC,-0.0203
15,CGACGCAC,-0.0357
16,GATGGACC,0.0708
17,AGCCTATG,-0.257
18,GTTCTCAA,-0.0516
19,ACTACAAG,-0.124
20,ACTTCGCG,0.222
21,CGTAGCAG,-0.0716
22,GGACTTCA,0.0537
23,ACTTGGCA,-0.231
24,CAGCTCCG,0.291
25,CTCTAACC,-0.0554

row,Sequence,PBM E-score
1,AACTATAA,0.137
2,TAAGCCTA,-0.0813
3,CTTCTAAC,-0.311
4,GACATGAA,0.0502
5,CGCTTTCA,0.0784
6,CGCGCACG,0.275
7,CTACAAGA,-0.0727
8,CGTCTGTC,0.149
9,AATACTCG,-0.00624
10,TAAGCGCA,-0.295
11,ACCAATGG,0.0557
12,CACCCACC,0.0132
13,CCCCAGAA,0.00938
14,AAGGTATA,-0.219
15,ATCCGCGA,0.21
16,GAGTGCCC,-0.00271
17,GGTTCACA,-0.0772
18,TAAGTTGA,-0.107
19,GGCATACA,0.0317
20,CCCAGAGC,-0.229
21,ACAGTCAC,-0.211
22,ACTTCCCT,0.0274
23,CAGGCGTA,-0.145
24,ACCAGCAC,-0.204
25,CCAAGCCG,-0.0356

row,Sequence,PBM E-score
1,GGCGATGA,0.0108
2,AGCCCGAG,-0.044
3,AGAGCTCT,-0.267
4,CGGCCAGC,0.233
5,TATGGCCA,-0.0695
6,AGTCGACA,0.001
7,CTTAACTC,-0.00401
8,CCTCGAAA,-0.114
9,AAGGAGTA,-0.0777
10,ATCGTCTA,-0.188
11,CGACGTGC,-0.015
12,CGAACTTA,0.0051
13,AATTGTCG,0.00999
14,AATGCTGT,-0.243
15,AGGCTAAT,0.00914
16,CACGCTTA,-0.185
17,CATGTACC,-0.258
18,GCCTGCCA,-0.00657
19,AGTGTGCC,-0.0578
20,CGGGGGTA,0.176
21,CCCGAAAA,0.191
22,GAGGATTA,-0.196
23,GCCGACAC,0.0242
24,GAACTTGC,0.00484
25,CTTCGATA,-0.0256

row,Sequence,PBM E-score
1,ACCCGGAG,0.38
2,GCAGCACA,0.0401
3,GGCAGTAA,-0.0438
4,CATAAGAC,-0.00962
5,ATGGGTAG,-0.138
6,TGACCGAA,0.0838
7,ACTGTAAA,-0.0558
8,AAACCAAA,-0.0674
9,CAGATCCA,0.0976
10,CAGGTGAA,-0.141
11,CCAGCGAA,0.0168
12,CCGTACTC,0.0572
13,GGTCACCA,-0.195
14,CTATCGAG,-0.015
15,AAGCTAAT,-0.0341
16,CGTGGGGC,0.133
17,AGTTATCG,0.109
18,CTGTGTAC,-0.0325
19,ACCAACAT,-0.0113
20,GCCGCCTA,-0.0979
21,GTCAACAA,-0.0887
22,AGCCAGCC,-0.168
23,ACTGTCTG,-0.105
24,AAATAGTA,0.152
25,CCAAAACC,-0.0021

row,Sequence,PBM E-score
1,AATCAAGA,-0.0664
2,TAAAAGTA,-0.0121
3,ATGGCCCA,0.0826
4,CCCCTCCC,0.0589
5,CGTTACGA,0.0482
6,GGTTCTGA,-0.109
7,GCATGCGA,0.169
8,GCCGTGAC,0.133
9,TGATAAAA,-0.106
10,GATTTCAA,0.0876
11,ATAGGACG,-0.0149
12,GGCTACCA,-0.144
13,AGCCACCT,-0.281
14,ATGATTAG,-0.00126
15,GGATGGTA,0.116
16,GGACATTA,0.22
17,ACGTAACC,-0.139
18,CAATGATG,-0.0442
19,CCCGGTGA,0.156
20,AGTCATCA,-0.0174
21,ATCGACTC,-0.096
22,CGTCGCAG,-0.167
23,AGCCCAAC,-0.193
24,ATCTTGAG,-0.0987
25,GGGACGAA,0.162

row,Sequence,PBM E-score
1,CAGGGCGA,0.0342
2,GGAGATAC,0.221
3,CGTGACAA,0.0645
4,CTTCCCGA,0.291
5,AACGCATT,0.052
6,ACTGACCG,-0.00211
7,CATCTTGA,-0.139
8,AGAGTTTG,-0.057
9,TACGCCTA,-0.129
10,GGGTGTCA,-0.0115
11,CCCCGACC,0.0391
12,CGGCAACA,0.153
13,AATAATGC,0.16
14,CGTCACCA,-0.147
15,AAACCTGC,-0.0837
16,TACGAAAA,-0.149
17,ACTAAAAC,-0.0196
18,AGCTGTCC,-0.116
19,TAGAGCGA,-0.247
20,ACACGCCA,-0.0389
21,ACTCCCGC,0.189
22,ATGTAAAC,0.0323
23,CGGAGCAA,0.338
24,CTCTTACA,-0.239
25,CGGATCTA,0.268

row,Sequence,PBM E-score
1,ACAGATAT,-0.0248
2,AAACTAAG,0.0156
3,ACGTTTCG,-0.11
4,CATCAAAA,-0.0452
5,GAATAGGA,0.0694
6,ATCATCAT,-0.0567
7,GTTCGCCA,0.0685
8,GCCCGCAA,0.24
9,AAAGGACT,-0.111
10,CACTCGAC,-0.0814
11,GGGGTATA,-0.0503
12,CGGCATTC,0.263
13,GGACAAAA,0.272
14,ATGCACCC,0.136
15,AGCCCACA,-0.286
16,ACATGGAC,-0.15
17,CAAATGTC,-0.165
18,TCATTTCA,-0.0161
19,CTGAGAAC,-0.0961
20,ATTGGCGC,0.0678
21,CTGGGAAG,-0.176
22,AAAGGGCC,-0.189
